This data set deals with the molecule itself. The experiment in a line: cryo-EM structure.

B1: Mycobacterium tuberculosis caseinolytic protease P2 (MtbClpP2) (enzyme)
chain: not shown
Consider B1, for which the “stoichiometry N” value was 7.

For orientation: stoichiometry N means a count of units in the complex or per binding partner.

The values are drawn from publication PMC11992174, “Structural Insights into Bortezomib-Induced Activation of the Caseinolytic Chaperone-Protease System in Mycobacterium tuberculosis” (Nature Communications, 2025).
